Sequences and labels used below:
T1: UNK ZnF1-6 (called full-length) (human, UniProt Q9C0B0 30-357)
T1 sequence: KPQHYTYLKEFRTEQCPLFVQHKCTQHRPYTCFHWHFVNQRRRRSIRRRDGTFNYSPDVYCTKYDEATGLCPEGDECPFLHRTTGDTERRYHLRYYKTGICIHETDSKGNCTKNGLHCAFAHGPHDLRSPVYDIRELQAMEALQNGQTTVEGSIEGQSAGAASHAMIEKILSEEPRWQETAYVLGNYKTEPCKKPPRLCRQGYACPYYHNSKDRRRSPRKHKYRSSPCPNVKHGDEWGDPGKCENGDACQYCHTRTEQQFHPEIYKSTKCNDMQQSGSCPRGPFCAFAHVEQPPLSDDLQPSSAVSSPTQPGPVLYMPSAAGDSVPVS

B1: chr19:45712844:45712945:-|CDS|ENSG00000177051|unk|total|mutant (ssRNA)
RNA: GGGAGUUCUACAGUCCGACGAUCGGAACAGCGGGCAGCCCUGGCCCUGCAGAGCUACCCACGACCGACCACCCCAGCGCCUGCCGUCUUUGUGUCCGCCGAGCAAGGUGGACCGGCCAAGGGGGUGGGAUCUGAACGGCGGUCCAACAGAGGAUUGAGCAUCA
B2: chr4:145760401:145760502:-|3pUTR|ENSG00000151612|unk|total|mutant (ssRNA)
RNA: GGGAGUUCUACAGUCCGACGAUCUCCGUACUUUUCUCUGAAAGGAAUCUUGUCUUGUUAAACCCUAAAGAGAGUGUCCUUAACCGCAAUCAGCACUUGUAAGCUUAUAUACUGGUGCAUUUGGUUUUCUGUUGGGUGAAUGCGCAACAGAGGAUUGAGCAUCA
B3: chr20:64048168:64048962:-|CDS|ENSG00000203883|control|control|control (ssRNA)
RNA: GGGAGUUCUACAGUCCGACGAUCCCGCAAGAAGCAGGCGCGCAAGGCCCGGCGGCUGGAGCCCGGCCUCCUGCUCCCGGGAUUAGCGCCCCCGCAGCCACCGCCCGAGCCUUUCCCCGCGGCGUCUGGCUCGGCUCGCGCCUUCAACAGAGGAUUGAGCAUCA
B4: chr9:137030712:137031725:-|CDS|ENSG00000180549|control|control|control (ssRNA)
RNA: GGGAGUUCUACAGUCCGACGAUCCUGCCCCUGGCCCAGCGGCCGCGAGGGCAGCCCUGGGUGUGGGCCUCCAUGGAGUCUCCUAGCCACACCCACGGCCUCAGCCACCUCCGAGGCAUCUUCAACUGGGUGCUGAGCUACCGGCAACAGAGGAUUGAGCAUCA
B5: chr17:58089832:58089920:+|3pUTR|ENSG00000264364|msi1_unk|FALSE|overlapping (ssRNA)
RNA: GGGAGUUCUACAGUCCGACGAUCAUUCCACUGAACUGUGAUUCUAUGGCUUGGGGCGGAGGGUGGGGUGGGGAUGCCUUCUUUAGGGGCCCUGAGAUGUGUUUGUCUGUGGUGUGUGGGAGUGGGGAGCAGAUUUGUCUUGCUCAACAGAGGAUUGAGCAUCA
B6: chr6:109001311:109001429:-|CDS|ENSG00000080546|unk|total|mutant (ssRNA)
RNA: GGGAGUUCUACAGUCCGACGAUCUGCUGCUUUGGGCCGUUUGGAUAACAUUACGUCCGUGAUGGUUUUCCACCCACAAUAUUCCGAAAGUUUCUUAAAAACUCAGCACUAUCUACUGCAAAUGGAUGGGCCGUUACCCCUACACAACAGAGGAUUGAGCAUCA
B7: chr20:3868059:3868160:+|3pUTR|ENSG00000088888|unk|FALSE|bound_elsewhere (ssRNA)
RNA: GGGAGUUCUACAGUCCGACGAUCUCAGCCUCCAGGGAUCUACACCCUGCCUUGGCUGCUACAGCUUUUUCACUCCACUGCCCUAGGGGAGUUCAGCAACCUAAUGAUCUCUAUCUCUGAACAUCUCUUCAUCCCAUGCUCCAACAACAGAGGAUUGAGCAUCA
B8: chr10:88913158:88913259:+|CDS|ENSG00000138134|unk|total|mutant (ssRNA)
RNA: GGGAGUUCUACAGUCCGACGAUCGCAUCAGAGAUUGACCGAGGCAGAAAGGAAGCGGAUUGCUCAGAUGCGCCAGCAGCAGCCCGAAUCGGAGCAGUUUCUGUUUUUCGAAGAUCAACUCAAGAAGCAAGAGUCCGCCCGAGGCAACAGAGGAUUGAGCAUCA
B9: chr12:48342538:48342639:-|3pUTR|ENSG00000167528|unk|total|mutant (ssRNA)
RNA: GGGAGUUCUACAGUCCGACGAUCUUGUUAAACAUUUUGAGUAUCACUCUUGCAUACUGUUACUAUUAUAUUUUCUCUAUAUACCGACAGAAAGGCCAUUUCCGAAUAUUAAAGGCUCUGAAAAUUUCUGCAGCCGACCCAACUCAACAGAGGAUUGAGCAUCA
B10: chr15:48878618:48878734:+|CDS|ENSG00000255302|unk|total|mutant (ssRNA)
RNA: GGGAGUUCUACAGUCCGACGAUCAGAACCAGCCCUGGAUGGCGGGUUUCAGAUGCAUUAUGAGAAGACCCCGUUUGAUCAGUCCGCUUUUAUCGAAGAGCUUUUUUCACUGAUGGUUGUCAAUCGUCUGACCGAAGAACUCGGCAACAGAGGAUUGAGCAUCA
B11: chr7:29923496:29923595:-|3pUTR|ENSG00000136193|msi1_unk|total|mutant (ssRNA)
RNA: GGGAGUUCUACAGUCCGACGAUCUCACAGUGCCGAGUUGGCGGGAAAAGCAAAUUCUUUUGAAGUCUCCGUCUUUCCCUCAGCCGCGGUUUCUUUCAGGUUAACAAGAGGCAUUUGUGCACACACACAGGGCUCUUGUGUGUGCAACAGAGGAUUGAGCAUCA
B12: chr2:149026443:149026544:+|3pUTR|ENSG00000168280|msi1|total|mutant (ssRNA)
RNA: GGGAGUUCUACAGUCCGACGAUCGUAAAGUGUGUCCUGUGUACUGCAGAUGUGUGUUCUCUGGGCUUUAUGUAUCUGUACAGCCGCUUUCACAUUAAAAAAAUUGUGGACAAACUUGUCCGGGGGGUUUGAGGGGAGAAUGGUCAACAGAGGAUUGAGCAUCA
B13: chr22:32413844:32414425:-|three_prime_utr|ENSG00000184459|control|control|control (ssRNA)
RNA: GGGAGUUCUACAGUCCGACGAUCUGUAAACCCAGAAGGGAAAGACAGUACACACUGGAAUUGUAAAGCCCUUGUGAAUUGCUUAGGCAGAAAGUUUUCUUUCUUAAGCCUUCAGGAACCCAGAAUAAGGCAGACUCUGUUAAACAACAGAGGAUUGAGCAUCA
B14: chr7:83961326:83961382:-|CDS_3pUTR|ENSG00000075213|msi1_unk|FALSE|overlapping (ssRNA)
RNA: GGGAGUUCUACAGUCCGACGAUCAAACAGGAGGACCCACGAAUUUGAGAGGGCACCCAGGAGUGUCUGAGCUGCAUUACCUCUAGAAACCUCAAACAAGUAGAAACUUGCCUAGACAAUAACUGGAAAAACAAAUGCAAUAUACAACAGAGGAUUGAGCAUCA
B15: chr4:83462471:83462902:-|CDS|ENSG00000163322|control|control|control (ssRNA)
RNA: GGGAGUUCUACAGUCCGACGAUCUUCAAGAGAUCUCGGUUGUUAGAUACACAAGACAAACGAUCUAAAGCAGAUACUGGUAGUAGUAACCAAGAUAAAGCAUCCAAAAUGAGCAGCCCAGAAACAGAUGAAGAAAUUGAAAAGCAACAGAGGAUUGAGCAUCA
B16: chr12:56204332:56204433:-|3pUTR|ENSG00000181852|unk|total|mutant (ssRNA)
RNA: GGGAGUUCUACAGUCCGACGAUCUUUUGCCUUUCUCUCACCUUAAUUCCCUUUCUUCCUUACUUUGUUACCUACCCUUAUCUCCGUGCUAACUUCUCUUUCAGGAGGAUGUCUGGGAGCCGUGUGCACUUCACAGCUGCUUUCCAACAGAGGAUUGAGCAUCA
B17: chrX:119243474:119243703:+|3pUTR|ENSG00000101856|msi1|FALSE|unique (ssRNA)
RNA: GGGAGUUCUACAGUCCGACGAUCGGUAUUUCCCAAAACAGGUAAAAAUCUUAAAUGUGCACCAAGAGCAAAGGAUCAACUUUUAGUCAUGAUGUUCUGUAAAGACAACAAAUCCCUUUUUUUUUCUCAAUUGACUUAACUGCACAACAGAGGAUUGAGCAUCA
B18: ENSG00000103257:stop:overlap|stop_codon|ENSG00000103257|stop_codon|NA|stop_codon (ssRNA)
RNA: GGGAGUUCUACAGUCCGACGAUCGCAUCUUCUCCACGACCGUCCUGUGUCAGAAGCUCAUGCAGGUGGUCCCCCAGGAGACAUAGCCAGGAGGCCGAGUGGCUGCCGGAGGAGCAUGCGCAGAGGCCAGUUAAAGUAGAUCACCAACAGAGGAUUGAGCAUCA
B19: ENSG00000198589:be:win_5101|CDS|ENSG00000198589|bound_else_gene|NA|bound_elsewhere_windowed (ssRNA)
RNA: GGGAGUUCUACAGUCCGACGAUCCCACCAGCCUGCCUUGGAGCCCUUGGUGAUCUAUCUGUGGAACAACCCGUGCAGUUCAGAUCUUUUGACAGAAGUGUCAUUGUUGCAGCAAAAAAGUCAGCAGUCUCACCUUCCACCUUUCAACAGAGGAUUGAGCAUCA
B20: chr4:17843545:17843646:+|3pUTR|ENSG00000109805|msi1|FALSE|unique (ssRNA)
RNA: GGGAGUUCUACAGUCCGACGAUCCUGUGCGCUUCCACGUUACUUUGGCCUGUAUUAAAGCAGUAGAGCAGCAUCAGUUAUUAUAGUCCAGAAAAAGUGUGCAUCAGUCAGUCACACAGAUUUAUCACAAUCUGAGGUGGGCCUCAACAGAGGAUUGAGCAUCA
B21: chr2:200823707:200823808:+|3pUTR|ENSG00000082153|msi1|FALSE|bound_elsewhere (ssRNA)
RNA: GGGAGUUCUACAGUCCGACGAUCUGAGUAACUUUGAUAAAGUUUUUCAUGCACAGGCAAAAUGUAUUCACUAGAUUUCUACGUAGUGAUCUGCUUUUACUUUGUAAUUUGUAGUUCUCAAAAGACUUUUUUUUAAAAAAAUAACAACAGAGGAUUGAGCAUCA
B22: chr20:25297698:25297799:+|3pUTR|ENSG00000100994|msi1|total|mutant (ssRNA)
RNA: GGGAGUUCUACAGUCCGACGAUCCCCAAGAGAGAGGGCAGGGAACAGGCUACUGUCCUUCCCUGUGGAAUUGCCGAGAAAUCCCGCACCUUGCAUGCUGGAUCUGGGCUGCGGGGAGGCUCUUUUUCUCCCUGGCCUCCAGUGCAACAGAGGAUUGAGCAUCA

Some of the results follow.

This test has as its target T1, UNK ZnF1-6 (called full-length). Nature of the test: nsRBNS (natural sequence RNA bind-n-seq); RBNS binding buffer (assumed for nsRBNS): 25 mM Tris pH 7.5, 150 mM KCl, 3 mM MgCl2, 0.01% Triton X-100, 500 ug/ml BSA, 20 U/ml SUPERase-In, 4 C; UNK is unkempt and MSI1 is Musashi-1; names of the RNAs are library labels; protein concentration not given here; high values mean tight binding.
B1 gave a binding signal of 0.519 enrichment R. Molecule B2 yielded a binding signal of 0.276 enrichment R. B3 had a binding signal of 0.393 enrichment R. For the molecule B4, the binding signal is 0.691 enrichment R. For B5, the binding signal turned out to be 1.66 enrichment R.

In the case of B6, the binding signal turned out to be 0.469 enrichment R. To B7 belongs 0.573 enrichment R; to B8, 0.493 enrichment R. The result for B9 reads 0.639 enrichment R; that for B10, 0.834 enrichment R; that for B11, 0.374 enrichment R. The result for B12 reads 0.818 enrichment R.

B13 gave a binding signal of 0.429 enrichment R. For B14, the binding signal was 0.962 enrichment R. The result for B15 reads 0.544 enrichment R; that for B16, 0.75 enrichment R. To B17 belongs 0.727 enrichment R. To B18 belongs 0.571 enrichment R. For the molecule B19, the binding signal came out at 0.855 enrichment R. On to B20, for which the binding signal stood at 1 enrichment R. To B21 belongs 0.774 enrichment R; to B22, 0.743 enrichment R.
